Test results from publication PMC4336329 (PLoS ONE, 2015).
About 2,200 (0.71%) of roughly 310,000 compounds showed an effect of 50% or more. The effect is printed as a negative number. The list shows a part of the results.

molecular target: human ether-à-go-go-related gene (hERG) potassium channel (human, UniProt Q12809); assay: primary screen, population patch clamp on CHO cells stably expressing hERG
Sequence (Q12809 whole entry, looked up): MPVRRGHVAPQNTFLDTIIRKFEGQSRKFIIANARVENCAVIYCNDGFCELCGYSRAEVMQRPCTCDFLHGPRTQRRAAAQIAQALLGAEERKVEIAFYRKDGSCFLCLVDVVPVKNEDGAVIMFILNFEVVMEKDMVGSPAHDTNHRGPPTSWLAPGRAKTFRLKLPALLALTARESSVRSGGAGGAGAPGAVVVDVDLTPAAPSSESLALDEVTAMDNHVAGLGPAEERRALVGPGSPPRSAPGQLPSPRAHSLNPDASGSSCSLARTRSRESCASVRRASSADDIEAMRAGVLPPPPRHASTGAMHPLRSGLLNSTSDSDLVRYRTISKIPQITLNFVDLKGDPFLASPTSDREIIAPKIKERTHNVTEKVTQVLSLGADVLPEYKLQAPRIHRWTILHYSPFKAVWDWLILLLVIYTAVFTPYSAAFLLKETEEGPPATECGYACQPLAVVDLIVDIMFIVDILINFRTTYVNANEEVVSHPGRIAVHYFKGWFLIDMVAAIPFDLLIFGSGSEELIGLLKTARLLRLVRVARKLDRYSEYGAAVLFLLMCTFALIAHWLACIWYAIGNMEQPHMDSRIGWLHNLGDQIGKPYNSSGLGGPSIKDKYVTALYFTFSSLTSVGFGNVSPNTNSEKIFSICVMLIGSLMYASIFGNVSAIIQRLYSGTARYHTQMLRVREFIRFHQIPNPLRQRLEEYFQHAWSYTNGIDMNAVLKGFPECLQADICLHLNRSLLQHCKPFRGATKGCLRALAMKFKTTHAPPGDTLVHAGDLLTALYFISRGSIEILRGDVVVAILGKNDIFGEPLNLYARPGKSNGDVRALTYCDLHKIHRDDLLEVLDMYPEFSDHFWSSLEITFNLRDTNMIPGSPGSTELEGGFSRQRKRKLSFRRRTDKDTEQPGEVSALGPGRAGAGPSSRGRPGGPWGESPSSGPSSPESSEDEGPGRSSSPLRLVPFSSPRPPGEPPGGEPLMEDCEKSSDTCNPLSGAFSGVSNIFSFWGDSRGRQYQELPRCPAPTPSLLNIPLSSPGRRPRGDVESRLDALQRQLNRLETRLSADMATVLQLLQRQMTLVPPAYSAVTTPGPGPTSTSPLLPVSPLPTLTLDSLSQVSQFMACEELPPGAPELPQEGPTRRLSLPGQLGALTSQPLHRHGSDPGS

SMILES	hERG current change (%, negative = inhibition) at 1uM [%]
O=C(CC1(O)C(=O)Nc2ccccc21)c1cccnc1 (stereo not drawn)	9.72
Cn1c(CSc2nc3ccccc3s2)nnc1SCC(=O)NCc1cccnc1	2.2
COC(=O)C1=C(C(=O)OC)[C@@H]2Nc3ccccc3[C@@]23C[C@@H](C(=O)OC)N(C(=O)c2cccs2)C3=N1	8.31
CCOP(=O)(OCC)C(NC(=O)c1ccc(OC)cc1)C(Cl)(Cl)Cl (stereo not drawn)	14.9
CCOC(=O)N1CCN(C(=O)c2cccc(S(=O)(=O)Nc3ccc(Br)cc3)c2)CC1	7.62
COCCN=c1scc(-c2ccco2)n1/N=C/c1ccc(O)c(O)c1O	8.87
COCCNC(=O)CSCc1nc(-c2ccc(SC)cc2)oc1C	2.42
Cc1ccc2[nH]c3c(NCc4ccccc4)ncnc3c2c1	7.55
Cc1cccc(C(=O)N2CCN(CCNC(=O)C(=O)Nc3ccc(F)cc3)CC2)c1	4.08
Cc1c(-c2ccccc2)cn2c1-c1ccc(C)n1CC2	11
N#Cc1cc(Oc2ccc(Cl)cc2)c(N2CCOCC2)cc1C#N	7.48
O=C(Cn1c(=O)cnc2ccccc21)N1CCN(S(=O)(=O)c2cccc([N+](=O)[O-])c2)CC1	3.24
C=CCNC(=O)c1sccc1Oc1ccc(F)cc1[N+](=O)[O-]	8.88
O=C(NCC(c1ccco1)N1CCc2ccccc2C1)c1ccc(F)cc1 (stereo not drawn)	6.35
CC(=O)c1cccc(NC(=O)c2cc(-c3ccco3)nc3ccccc23)c1	13
CN(C)S(=O)(=O)c1cccc(NC(=S)N/N=C/C(c2ccccc2)c2ccccc2)c1	-0.478
O=C(O)c1ccccc1-c1nnc2c(Cl)cc(C(F)(F)F)cn12	13.8
Cc1cc(C)n(-c2ccc(C(=O)OCC(=O)NCc3ccc(F)cc3)cc2)n1	5.05
Nc1c(Cl)cc(C2=NCCn3nc4cc([N+](=O)[O-])ccc4c32)cc1Cl	0.193
CN(C)CCCNC(=O)c1ccccn1	-0.119
CCCCCCSC1=C(C#N)C(=O)NC2(CCCCC2)S1	15.8
O=S(=O)(c1ccc2c(c1)OCCO2)N1CCC(O)(c2ccc(Cl)cc2)CC1	12.8
CCCNC(=O)C(Sc1ccccc1)c1ccccc1 (stereo not drawn)	11.6
O=C(NNC(=S)Nc1ccccc1)c1ccc2ncccc2c1	25.6
